The campaign covered roughly 310,000 compounds. About 2,200 (0.71%) showed an effect of 50% or more. Effects have a minus sign here. Some of the results follow.
target: human ether-à-go-go-related gene (hERG) potassium channel (human, UniProt Q12809); experiment: primary screen, population patch clamp on CHO cells stably expressing hERG
Sequence (Q12809 whole entry, looked up): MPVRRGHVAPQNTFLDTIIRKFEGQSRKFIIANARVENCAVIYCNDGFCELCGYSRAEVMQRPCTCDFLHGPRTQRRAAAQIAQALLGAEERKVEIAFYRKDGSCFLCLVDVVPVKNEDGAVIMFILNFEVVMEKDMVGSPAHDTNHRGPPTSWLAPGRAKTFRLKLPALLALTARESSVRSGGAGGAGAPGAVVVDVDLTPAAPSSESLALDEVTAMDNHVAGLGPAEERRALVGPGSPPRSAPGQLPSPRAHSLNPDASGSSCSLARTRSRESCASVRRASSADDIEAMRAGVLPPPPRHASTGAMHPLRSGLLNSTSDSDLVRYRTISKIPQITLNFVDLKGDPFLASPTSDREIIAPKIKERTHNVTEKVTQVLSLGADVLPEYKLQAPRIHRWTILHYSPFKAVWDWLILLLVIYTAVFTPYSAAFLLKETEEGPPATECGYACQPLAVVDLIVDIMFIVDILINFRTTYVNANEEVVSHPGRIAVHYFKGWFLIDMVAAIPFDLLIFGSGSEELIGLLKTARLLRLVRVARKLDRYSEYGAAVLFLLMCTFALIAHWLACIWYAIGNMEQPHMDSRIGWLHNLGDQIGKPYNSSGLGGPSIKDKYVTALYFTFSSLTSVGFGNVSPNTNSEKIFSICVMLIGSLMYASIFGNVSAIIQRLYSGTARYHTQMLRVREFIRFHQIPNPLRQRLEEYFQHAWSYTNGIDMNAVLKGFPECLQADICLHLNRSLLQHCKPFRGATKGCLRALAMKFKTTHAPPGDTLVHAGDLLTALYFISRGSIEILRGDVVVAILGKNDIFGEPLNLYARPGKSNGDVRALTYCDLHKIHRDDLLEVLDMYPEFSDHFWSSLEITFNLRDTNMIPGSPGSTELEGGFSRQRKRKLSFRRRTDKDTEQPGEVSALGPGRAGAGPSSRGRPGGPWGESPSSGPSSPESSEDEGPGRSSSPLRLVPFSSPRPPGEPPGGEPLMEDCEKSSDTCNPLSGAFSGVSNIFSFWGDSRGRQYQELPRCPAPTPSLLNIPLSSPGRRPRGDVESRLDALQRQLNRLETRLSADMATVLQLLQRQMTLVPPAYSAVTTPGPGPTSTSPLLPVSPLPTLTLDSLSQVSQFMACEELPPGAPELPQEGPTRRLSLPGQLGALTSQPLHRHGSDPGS

Row | Compound | hERG current change (%, negative = inhibition) at 1uM
1 | CC(C)OCCCn1c(=O)c2ccccc2n2c(CCC(=O)NC3CCN(Cc4ccccc4)CC3)nnc12 | 6.09%
2 | C#CCNc1cc(C)nc2ncnn12 | 6.02%
3 | CC(C)(C)OC(=O)N1CCC(CNC(=O)c2ccc(F)cc2)CC1 | 10.3%
4 | CC(OC(=O)Cc1ccc(Cl)cc1)C(=O)NCCC1=CCCCC1 (stereo not shown) | 2.14%
5 | O=C(O)COc1nsnc1N1CCOCC1 | 12.3%
6 | CCC(Oc1ccc2ccccc2c1)C(=O)O (stereo not shown) | 9.45%
7 | Cc1cccc(NC(=S)NCc2ccccn2)c1 | 16.6%
8 | CCN(CC(=O)Nc1ccccc1C(F)(F)F)C(=O)CN1C(=O)NC(C)(c2ccccc2)C1=O (stereo not shown) | 20.5%
9 | O=C1c2ccccc2-c2cccc(C(=O)N3CCCCC3)c21 | 9.76%
10 | COc1cccc(-n2nc3c(-n4ncc(C#N)c4N)nnc(C)c3c2C)c1 | 1.81%
11 | O=C(O)/C=C/c1cn(-c2ccccc2)nc1-c1ccc2c(c1)OCCO2 | 3.62%
12 | Cc1ccc(C)c(N2CCN(S(=O)(=O)c3ccc4c(c3)NC(=O)CO4)CC2)c1 | 14.8%
13 | COc1cc(NC(=O)c2ccc3c(c2)S(=O)(=O)N=C2CCCCCN23)cc(OC)c1 | 10.3%
14 | CN(C)c1ccc(N2CN=C3SCC(=O)N3C2)cc1 | 13%
15 | NS(=O)(=O)c1ccc(CCNC(=O)c2ccc(NS(=O)(=O)c3ccc4[nH]c(=O)[nH]c4c3)cc2)cc1 | 9.43%
16 | COc1ccccc1CNc1ccc(Br)cn1 | 7.94%
17 | CCOC(=O)c1cccc(NC(=O)CN(c2ccc(C)cc2)S(=O)(=O)c2c(C)noc2C)c1 | 12.9%
18 | COc1ccc(C2c3c(-c4ccccc4O)n[nH]c3C(=O)N2Cc2ccco2)cc1 (stereo not shown) | 5.39%
19 | O=C(NN=C1C2CC3CC1CC(Cl)(C3)C2)c1cccs1 | 11.3%
20 | C=CCN1C(=O)c2ccc(C(=O)N3CCN(S(=O)(=O)c4cc(C)ccc4C)CC3)cc2C1=O | 3.79%
21 | Cc1ccc(NC(=O)CN2C(=O)S/C(=C\c3cccn3-c3cccc(C(=O)O)c3)C2=O)cc1C | 14.3%
22 | Cc1ccc(NC(=S)NCCc2c[nH]c3ccccc23)c(C)c1 | 4.24%
23 | COc1ccc(S(=O)(=O)Nc2cc(C)on2)cc1OC | 10.3%
24 | S=C(N/N=C/c1ccc2c(c1)OCO2)NC1CC2CCC1C2 (stereo not shown) | 16%
25 | Cc1cc(-c2ccccc2)c2c(=O)n(-c3ccccc3)[nH]c2n1 | 13.2%
